In the supplement of paper PMC8728848:
Some of the results follow.

Key:
Assay in all cases: glycan array binding signal (z-score within array); higher = stronger binding
Details in all cases: glycan notation: IUPAC condensed, linker removed
GalNAc(b1-3)Gal = target: GalNAc(b1-3)Gal
Outline: (§1)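 Negative Z-scores can be read as non-binding. The Z-score is calculated within each array and then averaged across arrays of one protein sequence at different concentrations or buffers and across linkers. Arrays, 3228 in all, were curated from the Consortium for Functional Glycomics database and kept only where the protein sequence was available.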

[1] = target: GalNAc(b1-3)Gal(a1-4)Gal(b1-4)GlcNAc
Outline: as §1

[2] = target: GalNAc(b1-3)Gal(a1-4)Gal(b1-4)GlcNAc(b1-3)Gal(b1-4)Glc
Outline: as §1

[3] = target: GalNAc(b1-3)Gal(a1-6)Gal(b1-4)Glc
Outline: as §1

GalNAc(b1-3)GalNAc = target: GalNAc(b1-3)GalNAc
Outline: as §1

GalNAc(b1-3)GlcNAc = target: GalNAc(b1-3)GlcNAc
Outline: as §1

GalNAc(b1-4)Gal(b1-4)Glc = target: GalNAc(b1-4)Gal(b1-4)Glc
Outline: as §1

GalNAc(b1-4)GlcNAc = target: GalNAc(b1-4)GlcNAc
Outline: as §1

[4] = target: GalNAc(b1-4)GlcNAc(b1-2)Man
Outline: as §1

[5] = target: GalNAc(b1-4)GlcNAc(b1-2)Man(a1-3)[GalNAc(b1-4)GlcNAc(b1-2)Man(a1-6)]Man(b1-4)GlcNAc(b1-4)GlcNAc
Outline: as §1

[6] = target: GalNAc(b1-4)GlcNAc(b1-3)GalNAc(b1-4)GlcNAc
Outline: as §1

GalNAc(b1-4)GlcNAc6S = target: GalNAc(b1-4)GlcNAc6S
Outline: as §1

GalNAc(b1-6)GalNAc = target: GalNAc(b1-6)GalNAc
Outline: as §1

GalNAc3S(b1-4)GlcNAc = target: GalNAc3S(b1-4)GlcNAc
Outline: as §1

GalNAc3S(b1-4)GlcNAc3S = target: GalNAc3S(b1-4)GlcNAc3S
Outline: as §1

[7] = target: GalNAc3S(b1-4)[Fuc(a1-3)]GlcNAc
Outline: as §1

GalNAc4S6S(b1-4)GlcNAc = target: GalNAc4S6S(b1-4)GlcNAc
Outline: as §1

GalNAc6S(b1-4)GlcNAc = target: GalNAc6S(b1-4)GlcNAc
Outline: as §1

Glc(a1-4)Glc = target: Glc(a1-4)Glc
Outline: as §1

[8] = target: Glc(a1-4)Glc(a1-4)Glc(a1-4)Glc
Outline: as §1

Glc(a1-6)Glc(a1-6)Glc = target: Glc(a1-6)Glc(a1-6)Glc
Outline: as §1

[9] = target: Glc(a1-6)Glc(a1-6)Glc(a1-6)Glc
Outline: as §1

Glc(b1-4)Glc = target: Glc(b1-4)Glc
Outline: as §1

Glc(b1-6)Glc = target: Glc(b1-6)Glc
Outline: as §1

GlcA(b1-3)Gal = target: GlcA(b1-3)Gal
Outline: as §1

GlcA(b1-3)GlcNAc = target: GlcA(b1-3)GlcNAc
Outline: as §1

GlcA(b1-6)Gal = target: GlcA(b1-6)Gal
Outline: as §1

[10] = target: GlcA3S(b1-3)Gal(b1-4)GlcNAc(b1-2)Man
Outline: as §1

[11] = target: GlcA3S(b1-3)Gal(b1-4)GlcNAc(b1-3)Gal(b1-4)Glc
Outline: as §1

[12] = target: GlcNAc(a1-3)Gal(b1-4)GlcNAc
Outline: as §1

[13] = target: GlcNAc(a1-4)Gal(b1-3)GlcNAc
Outline: as §1

[14] = target: GlcNAc(a1-4)Gal(b1-4)GalNAc
Outline: as §1

[15] = target: GlcNAc(a1-4)Gal(b1-4)GlcNAc
Outline: as §1

[16] = target: GlcNAc(a1-4)Gal(b1-4)GlcNAc(b1-3)Gal(b1-4)Glc
Outline: as §1

[17] = target: GlcNAc(a1-4)Gal(b1-4)GlcNAc(b1-3)Gal(b1-4)GlcNAc
Outline: as §1

[18] = target: GlcNAc(a1-4)Gal(b1-4)GlcNAc(b1-3)Gal(b1-4)GlcNAc(b1-3)Gal(b1-4)GlcNAc
Outline: as §1

[19] = target: GlcNAc(a1-4)Gal(b1-4)GlcNAc(b1-3)Gal(b1-4)[Fuc(a1-3)]GlcNAc(b1-3)Gal(b1-4)[Fuc(a1-3)]GlcNAc
Outline: as §1

[20] = target: GlcNAc(a1-6)Gal(b1-4)GlcNAc
Outline: as §1

B1: FGFR2-Fc (protein)
chain: MVNVTDAISSGDDEDDTDGAEDFVSENSNNKRAPYWTNTEKMEKRLHAVPAANTVKFRCPAGGNPMPTMRWLKNGKEFKQEHRIGGYKVRNQHWSLIMESVVPSDKGNYTCVVENEYGSINHTYHLDVVERSPHRPILQAGLPANASTVVGGDVEFVCKVYSDAQPHIQWIKHVEKNGSKYGPDGLPYLKVLKHSGINSSNAEVLALFNVTEADAGEYICKVSNYIGQANQSAWLTVLPKQQAPGREKEITASPDYLETRPLEQKLISEEDLAANDILDYKDDDDKV
Q: Which results are given for B1?
A: glycan array binding signal (z-score) (GalNAc(b1-3)Gal): 0.647; glycan array binding signal (z-score) [1]: 0.144; glycan array binding signal (z-score) [2]: 0.337; glycan array binding signal (z-score) [3]: -0.126; glycan array binding signal (z-score) (GalNAc(b1-3)GalNAc): -0.106; glycan array binding signal (z-score) (GalNAc(b1-3)GlcNAc): -0.683; glycan array binding signal (z-score) (GalNAc(b1-4)Gal(b1-4)Glc): -0.408; glycan array binding signal (z-score) (GalNAc(b1-4)GlcNAc): 0.087; glycan array binding signal (z-score) [4]: -0.587; glycan array binding signal (z-score) [5]: -0.322; glycan array binding signal (z-score) [6]: -0.178; glycan array binding signal (z-score) (GalNAc(b1-4)GlcNAc6S): -0.578; glycan array binding signal (z-score) (GalNAc(b1-6)GalNAc): -0.692; glycan array binding signal (z-score) (GalNAc3S(b1-4)GlcNAc): -0.098; glycan array binding signal (z-score) (GalNAc3S(b1-4)GlcNAc3S): 0.364; glycan array binding signal (z-score) [7]: 0.669; glycan array binding signal (z-score) (GalNAc4S6S(b1-4)GlcNAc): 0.263; glycan array binding signal (z-score) (GalNAc6S(b1-4)GlcNAc): -0.061; glycan array binding signal (z-score) (Glc(a1-4)Glc): -0.334; glycan array binding signal (z-score) [8]: -0.11; glycan array binding signal (z-score) (Glc(a1-6)Glc(a1-6)Glc): -0.079; glycan array binding signal (z-score) [9]: -0.474; glycan array binding signal (z-score) (Glc(b1-4)Glc): -0.66; glycan array binding signal (z-score) (Glc(b1-6)Glc): -0.248; glycan array binding signal (z-score) (GlcA(b1-3)Gal): -0.029; glycan array binding signal (z-score) (GlcA(b1-3)GlcNAc): -0.356; glycan array binding signal (z-score) (GlcA(b1-6)Gal): 0.307; glycan array binding signal (z-score) [10]: -0.293; glycan array binding signal (z-score) [11]: -0.6; glycan array binding signal (z-score) [12]: 22.2; glycan array binding signal (z-score) [13]: -0.278; glycan array binding signal (z-score) [14]: -0.569; glycan array binding signal (z-score) [15]: -0.008; glycan array binding signal (z-score) [16]: 0.349; glycan array binding signal (z-score) [17]: -0.373; glycan array binding signal (z-score) [18]: -0.686; glycan array binding signal (z-score) [19]: 1.49; glycan array binding signal (z-score) [20]: -0.513
